This is an account of results in PubChem BioAssay AID488969 (Vanderbilt High Throughput Screening Facility, 2010).

In all, about 110,000 compounds were measured (“z-score”: median about -0.1, highest 2% from about 2 on). The list shows a part of the results. Active and inactive are the calls of the source.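 How the source made its calls: active means z-score in the third read window above 3 or below -3; inactive means the rest.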

This assay has as its target Metabotropic glutamate receptor 8 (Rattus norvegicus) (UniProt P70579). The experiment in a line: mGluR8 Gi/Go-coupled signaling modulation – cell-based, rat, thallium flux, HTS, primary screen (AID 488969). As to conditions: HEK293 rat mGluR8, GIRK (G protein-gated inwardly rectifying potassium channel) thallium flux, FluoZin2; at 10 µM; stronger effect = higher value; submaximal glutamate (EC20) added with thallium.
Chain of UniProt P70579 (P70579 whole entry, looked up): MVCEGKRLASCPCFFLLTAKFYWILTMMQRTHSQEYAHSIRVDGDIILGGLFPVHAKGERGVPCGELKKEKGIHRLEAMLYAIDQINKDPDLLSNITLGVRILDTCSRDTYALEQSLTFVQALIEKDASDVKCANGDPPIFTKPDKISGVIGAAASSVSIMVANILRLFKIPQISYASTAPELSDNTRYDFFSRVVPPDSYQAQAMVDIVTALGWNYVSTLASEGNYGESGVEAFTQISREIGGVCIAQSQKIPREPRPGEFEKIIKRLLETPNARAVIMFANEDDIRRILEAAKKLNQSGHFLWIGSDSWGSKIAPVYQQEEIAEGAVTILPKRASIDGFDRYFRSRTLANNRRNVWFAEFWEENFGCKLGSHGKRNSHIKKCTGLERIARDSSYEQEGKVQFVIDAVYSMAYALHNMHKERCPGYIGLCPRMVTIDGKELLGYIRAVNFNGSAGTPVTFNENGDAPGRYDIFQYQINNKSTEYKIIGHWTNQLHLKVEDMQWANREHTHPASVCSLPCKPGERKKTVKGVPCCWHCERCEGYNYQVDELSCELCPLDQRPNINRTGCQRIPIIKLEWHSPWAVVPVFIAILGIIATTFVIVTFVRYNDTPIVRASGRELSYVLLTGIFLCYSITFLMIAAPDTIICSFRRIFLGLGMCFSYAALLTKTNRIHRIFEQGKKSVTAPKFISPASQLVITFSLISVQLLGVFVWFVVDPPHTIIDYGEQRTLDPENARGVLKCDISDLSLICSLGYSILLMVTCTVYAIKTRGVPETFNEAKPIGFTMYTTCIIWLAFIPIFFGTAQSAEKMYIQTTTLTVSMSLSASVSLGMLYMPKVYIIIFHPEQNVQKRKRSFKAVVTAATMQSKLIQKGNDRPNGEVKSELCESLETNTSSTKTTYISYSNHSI
`COc1ccc(CNC(=O)Cc2c(C(=O)O)[nH]c3ccccc23)cc1` yielded a z-score of -0.136.

Regarding `CC1(c2ccccc2)CC(C)(C)N2C(=O)/C(=C3\SC(=S)NC3=O)c3cccc1c32` (centres undefined), the z-score is active: 5.26.

Take `Cc1cc(C(F)(F)F)nc(SCC(=O)NC2CC3CCC2C3)n1` (centres undefined): the z-score is -0.389.

Consider `COc1ccc(-n2nc([N+](=O)[O-])c(=NCCc3ccccc3)n2O)cc1`, for which the z-score is -0.0204.

Regarding `C=CCOc1ccc(/C=N/O)cc1Cl`, the z-score was found to be 0.276.

The compound `Clc1ss/c(=N\c2ccccn2)c1Cl` showed a z-score of -0.261.

Consider `Cn1c(=O)c2ncn(CC(=O)NCCOc3ccccc3)c2n(C)c1=O`, for which the z-score was -0.0185.

As to `Cc1cc(C(=O)CSc2nnc(-c3ccccc3)n2C)c(C)n1C`, the z-score was -0.546.

Turning to `c1cnc(N2CCSCC2)nc1`, the z-score is -0.316.

With `CCOc1ccc2cc(C#N)c(SCC(=O)N3CCCC3)nc2c1`, the z-score is -0.694.

`N=c1ncn(CC(O)CN2CCOCC2)c2nc(N3CCOCC3)[nH]c12` (centres undefined) showed a z-score of -0.0814.

The compound `CC1CCCN(C(=O)C2CCCN(S(=O)(=O)c3cccc4nsnc34)C2)C1` (centres undefined) had a z-score of 0.195.

As for `O=C(C1=C(O)C(=O)N(c2ncccn2)C1c1ccc(Cl)cc1)c1ccco1` (centres undefined), the z-score is -0.273.

`O=C(NC1CCCCC1)c1ccc(Cl)c(NC(=O)c2ccccc2F)c1`: the z-score was -0.187.

`COc1cccc(/C=N/NC(=O)c2cc3c(OC)cccc3[nH]2)c1OC` yielded a z-score of -0.332.

`COc1ccccc1-n1c(COc2ccccc2-c2ccccc2)nnc1SCC(=O)c1c(N)n(C)c(=O)n(C)c1=O` had a z-score of -0.138.

The compound `O=C(c1ccc(Cl)c(S(=O)(=O)Nc2ccccc2C(=O)N2CCc3ccccc3C2)c1)N1CCc2ccccc2C1` showed a z-score of 0.109.

`COc1ccc(N/C(C)=C2/C(=O)C(=O)N(CCO)C2c2ccc([N+](=O)[O-])cc2)cc1` (centres undefined): the z-score is -0.701.

`O=C(/C=C/c1ccco1)N/C(=C\c1ccccc1)C(=O)NCCc1nc2ccccc2[nH]1` had a z-score of 0.322.

In the case of `CCn1ncc(C(=O)Nc2ccc(S(=O)(=O)N3CCCC3)cc2)c1C`, the z-score is 0.826.

The compound `Cc1ccc(Sc2nc(C)cc(C)c2S(C)(=O)=O)cc1` gave a z-score of -0.329.

With `COc1ccc2c(c1)cc1n2CCN=C1NCCO`, the z-score was -0.0724.

In turn, `COc1cc(O)c(C(C)=O)cc1OC` yielded a z-score of 0.68.

`CCOc1cc(NC(=S)NCC2CCCO2)c(OCC)cc1NC(=O)c1ccccc1C` (centres undefined): the z-score worked out at 0.0372.

On to `Cc1ccc(-c2noc(CCC(=O)Nc3cc(C)ccn3)n2)cc1`, for which the z-score is -0.445.

Compound `O=C1c2cccc3cccc(c23)C(=O)N1OS(=O)(=O)c1ccc(Cl)cc1` displayed a z-score of 0.123.

For `Cc1c(C#N)c2ncn(CCCN(C)C)c(=O)c2n1-c1ccccc1`, the z-score is -0.334.

With `O=C(NNC(=O)c1ccc(Cl)cc1Cl)c1ccncc1`, the z-score was 0.97.

Regarding `Cc1ccc2nc(NC(=O)Cn3nc(C)c([N+](=O)[O-])c3C)sc2c1`, the z-score is -0.0691.

For the compound `CS(=O)(=O)N1N=C(c2ccc(Br)cc2)CC1c1ccc2c(c1)OCO2` (centres undefined), the z-score is -0.311.

`C/C(=N\NS(=O)(=O)c1ccc(Cl)cc1)c1ccc(NC(=O)c2ccco2)cc1` showed a z-score of -0.376.

`Cc1cccc(S(=O)(=O)Nc2cccc3c2C(=O)c2ccccc2-3)c1`: the z-score was active: 8.14.

`O=C(Nc1cccc(C(F)(F)F)c1)c1cccnc1` gave a z-score of 0.0334.

Turning to `CCn1c(=NC(=O)CSC(C)=O)sc2ccccc21`, the z-score is active: 3.49.

`CCN(CC)S(=O)(=O)c1ccc(-c2nnc3sc4cccc(C)c4n23)cc1` showed a z-score of -0.6.

With `Cc1nc2ccccn2c1C(=O)N=Nc1c(O)n(CCC(C)C)c2ccccc12`, the z-score was -0.614.

Take `Cc1ccc(CNC(=O)c2cn(C3CCCCC3)c(=O)c3c2c2ccccc2n3C)o1`: the z-score is -0.644.

As for `CCn1c(=O)c(C(=O)CN2c3ccccc3CC2C)c(N)n(Cc2ccccc2)c1=O` (centres undefined), the z-score was -1.25.

In turn, `Cc1ccn2cc(-c3cnoc3C)nc2c1` came in with a z-score of 0.218.

`CC[N+](C)(C)CCN(Cc1ccc(Cl)cc1)c1ccccn1` returned a z-score of 0.423.

`COc1cc(/C=N/N2C(=O)c3ccccc3NC2(C)c2cccc([N+](=O)[O-])c2)cc(Br)c1O` (centres undefined): the z-score came to 0.0269.

The compound `COc1cccc(-c2cc(N3C(=O)Nc4ccccc4N3O)n[nH]2)c1` yielded a z-score of -0.0707.

`CCOc1ccccc1OCC(=O)Nc1nnc(C)s1` registered a z-score of 0.336.

In turn, `Cc1ccc(C(=O)N/C(=C\c2ccco2)C(=O)NCc2cccnc2)cc1` displayed a z-score of -0.256.

In turn, `COc1ccc(C2C=C(c3ccccc3)Nc3nc(NC(C)=O)nn32)cc1` (centres undefined) came in with a z-score of -0.298.

`O=C(Cn1c(=O)sc2ccccc21)NCc1ccccn1` came in with a z-score of 1.29.

For `Oc1ccc(N2CCN(C(=S)NCCc3ccccc3)CC2)cc1`, the z-score is -0.0993.

The compound `CCn1c(C)cc(/C=C2\SC(=O)N(CC(=O)Nc3ccc(C)c(C)c3)C2=O)c1C` gave a z-score of 0.305.

Turning to `C=CCNc1oc(COc2ccc(C)cc2)nc1C#N`, the z-score is -0.0504.

`Cn1c(-c2c(N)n(CCCc3ccccc3)c3nc4ccccc4nc23)nc2ccccc21` displayed a z-score of 0.0137.

`O=C(NCc1ccc2c(c1)OCO2)c1ccc(C2SCC(=O)N2Cc2ccco2)cc1` (centres undefined) displayed a z-score of -0.994.

For the compound `Cc1coc2cc3oc(=O)c4c(c3cc12)CCCC4`, the z-score was -0.489.

The compound `CCN(CC)S(=O)(=O)c1cccc(C(=O)NCC2CCCO2)c1` (centres undefined) displayed a z-score of 0.42.

Compound `O=C(N/N=C/c1ccncc1)c1nc(-c2ccccc2)n2c1CCCCC2` had a z-score of -0.271.

As for `Cc1ccc(NC(=O)C(=O)NC2CCCCC2)cc1`, the z-score is 0.276.

With `Cc1ccc(CN2C(=O)C3CCCN3c3ccc(C#N)cc32)cc1` (centres undefined), the z-score was -0.734.

As for `Cn1c(=O)c2c(-c3ccccc3)n3c4ccccc4ncc3c2n(C)c1=O`, the z-score was -1.64.

Compound `O=C(CCNC(=O)c1ccc(Br)o1)NCc1ccccn1` yielded a z-score of 0.23.

`C/C(=N\Nc1ccc(C(F)(F)F)cc1[N+](=O)[O-])C1CC1` came in with a z-score of -0.192.

`O=C(COC(=O)/C=C/c1ccco1)Nc1cccc([N+](=O)[O-])c1` displayed a z-score of 1.65.

`O=C(NCc1ccco1)c1sc2cc(F)ccc2c1Cl` came in with a z-score of -0.935.

Compound `NC(=O)C1(N2CCCCC2)CCN(C(=O)Nc2ccccc2C(F)(F)F)CC1` showed a z-score of -0.0409.

With `CCOC(=O)c1cccnc1SC(CC)C(=O)NCc1ccco1` (centres undefined), the z-score is -0.502.

The compound `CCOc1ccc(C2C(C(=O)c3ccco3)=C(O)C(=O)N2CCN(C)C)cc1` (centres undefined) registered a z-score of 0.0359.

In turn, `COC(=O)c1cc(NC(=O)Nc2cc(OC)ccc2OC)cc(C(=O)OC)c1` displayed a z-score of -0.501.

`CCOc1ccc(/C(O)=C2\C(=O)C(=O)N(CCOCCO)C2c2ccccc2OC)cc1` (centres undefined) came in with a z-score of -0.683.

For the compound `Cc1cc(N2CCN(c3ccccc3)CC2)nc(-c2ccccc2O)n1`, the z-score is -0.813.

For the compound `O=C(C(Cc1ccccc1)n1cccc1)N1CCCCC1` (centres undefined), the z-score was -0.0522.

Compound `CCc1ccc(/C=N/NC(=O)c2cc(C3CC3)nc3ccccc23)s1` gave a z-score of 1.4.

Take `CC(C)(C)n1nnnc1CN(Cc1cccnc1)Cc1ccccc1Cl`: the z-score is -0.00735.

Compound `O=S(=O)(Cc1cnc(Cl)s1)c1ccccc1` showed a z-score of 0.0235.

Consider `CC1=CC2=NCC(O)CN2C=C1` (centres undefined), for which the z-score was -0.103.

The compound `CCN1C(=O)C(CC(=O)Nc2ccc(OC)cc2)N(Cc2cccnc2)C1=S` (centres undefined) showed a z-score of -0.0498.

Regarding `CC(=O)NC(CC(=O)Nc1ccc(S(=O)(=O)N2CCCCC2)cc1)c1ccccc1` (centres undefined), the z-score was -0.123.

`O=c1c2ccccc2[nH]c(=S)n1CC1CCCO1` (centres undefined) yielded a z-score of 0.302.

`COC(=O)Cn1nc(C)c2ccccc2c1=O`: the z-score is -0.0898.

Turning to `CCN(Cc1ccccc1)C(c1ccccn1)c1nnnn1C1CCCCC1` (centres undefined), the z-score came out at 0.521.

In turn, `CCOC(=O)C1CCCN(c2c(NCCN(CC)c3ccccc3)c(=O)c2=O)C1` (centres undefined) had a z-score of -0.781.

For `Nn1c(Cc2cccc3ccccc23)nnc1SCn1nnc2ccccc2c1=O`, the z-score was found to be 0.116.

The compound `CCOC(=O)Cc1nnc(NC(=O)CSc2ccccc2)s1` displayed a z-score of 0.161.

As for `CCCCCn1c(N)c(-c2nc3ccccc3o2)c2c([N+](=O)[O-])nn(CC)c(=O)c21`, the z-score was -0.014.

In turn, `COC(=O)C1=C(C)N(CCc2ccccc2)C(=O)C1(NS(=O)(=O)c1ccc(NC(C)=O)cc1)C(F)(F)F` (centres undefined) had a z-score of -0.327.

With `CCOc1ccc(Cl)cc1CSc1ncn[nH]1`, the z-score was 0.0322.

Regarding `Cc1ccc(NC(=O)COC(=O)C2CCC(=O)N2)c(S(=O)(=O)N2CCOCC2)c1` (centres undefined), the z-score is -0.196.

The compound `CCOc1cc(CNCCc2ccc(S(N)(=O)=O)cc2)ccc1OCc1ccccc1` displayed a z-score of 0.617.

`COc1c(Cl)cc(-c2noc(C)c2C(=O)NCc2ccccc2)cc1Cl`: the z-score is -0.588.

For the compound `CN(CCNC(=O)C1CC(=O)N(C2CCCC2)C1)Cc1ccccc1` (centres undefined), the z-score was -0.238.

Consider `CC(=O)Nc1ccc(N2CCCCC2)c(C(=O)Nc2cccc(C)c2)c1`, for which the z-score is -0.0504.

The compound `O=C(Nc1ccc(OC(F)F)c(Cl)c1)C(c1ccccc1)c1ccccc1` came in with a z-score of -0.354.

The compound `O=S(=O)(N1CCCCC1)N1CCN(S(=O)(=O)N2CCCCC2)CC1` showed a z-score of 0.219.

Regarding `CCCC1CCc2c(sc(NC(=O)OCC)c2C#N)C1` (centres undefined), the z-score amounted to 1.14.

Compound `CCCCc1nc2ccccc2c(NC(=O)CN2CCCC2)c1CCC` gave a z-score of -1.16.

In turn, `CCOC(=O)c1[nH]c2ccc(Br)cc2c1NC(=O)CCN1CCCCC1` showed a z-score of -0.198.

Regarding `O=C(NC(=S)NCCN1CCOCC1)c1ccc(Cl)cc1Cl`, the z-score came out at 0.241.

Consider `CCOC(=O)c1cccc(NC(=O)CSc2nc3ccccc3c(=O)n2CC)c1`, for which the z-score is -0.11.

Turning to `Cc1ccc2[nH]c3c(c2c1)CN(C(=O)CN1CC(C)OC(C)C1)CC3` (centres undefined), the z-score was 0.124.

On to `CCCCC(CC)CNC(=O)CN(C)S(=O)(=O)c1cccc2nsnc12` (centres undefined), for which the z-score is -0.404.

Compound `COc1ccc(S(=O)(=O)N2CCC(c3cc(-c4cccc5ccccc45)n[nH]3)CC2)cc1` had a z-score of 2.15.

`O=C(/C=C/c1ccc(O)cc1)c1ccc(NC2=C(N3CCCCC3)C(=O)c3ccccc3C2=O)cc1`: the z-score was -0.195.

The compound `CN(CC(=O)NC1CCCCCC1)S(=O)(=O)c1ccccc1` gave a z-score of -0.0452.

With `COc1ccc2cc3cc(C(=O)NC(C)C)oc3nc2c1`, the z-score was found to be 0.629.

As for `Cc1c(Cl)cccc1NC(=S)NCc1ccc2c(c1)OCO2`, the z-score worked out at 0.0623.

The compound `CCOc1cc(S(=O)(=O)Nc2ccccn2)ccc1F` came in with a z-score of -0.0329.

`COC(=O)Nc1nnc(/C=C/c2ccc(OC)cc2)s1` gave a z-score of -0.162.

For the compound `O=C(CSc1nnc(-c2ccncc2)n1-c1ccc(Cl)cc1)N1CCOCC1`, the z-score is 0.068.

For `COc1ccc(-n2c(COc3cccc4ccccc34)nnc2SCC(=O)NCc2ccco2)cc1`, the z-score stood at 0.527.

The compound `COC(=O)Cc1[nH]nc2c1C(c1c[nH]c3ccccc13)C(C#N)=C(N)O2` (centres undefined) gave a z-score of -0.415.

For the compound `CCCCn1nc2cc(C(=O)NCc3ccc(OC(F)(F)F)cc3)ccc2c1OC`, the z-score is -0.209.

Take `CC(C)n1c(N2CCN(C(=O)Nc3ccccc3)CC2)nc2ccccc21`: the z-score was -0.339.
